Measured values taken from article PMC4336329 (PLoS ONE, 2015).
The whole screen tested about 310,000 compounds, of which about 14,000 (4.5%) showed an effect of 50% or more. Effects have a minus sign here. Some of the results follow.

Biological target: human ether-à-go-go-related gene (hERG) potassium channel (human, UniProt Q12809)
Experiment: primary screen, population patch clamp on CHO cells stably expressing hERG
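Further: peak tail current of the secondary pulse compared with the same well before compound.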

Sequence of human ether-à-go-go-related gene (hERG) potassium channel (Q12809 whole entry, looked up): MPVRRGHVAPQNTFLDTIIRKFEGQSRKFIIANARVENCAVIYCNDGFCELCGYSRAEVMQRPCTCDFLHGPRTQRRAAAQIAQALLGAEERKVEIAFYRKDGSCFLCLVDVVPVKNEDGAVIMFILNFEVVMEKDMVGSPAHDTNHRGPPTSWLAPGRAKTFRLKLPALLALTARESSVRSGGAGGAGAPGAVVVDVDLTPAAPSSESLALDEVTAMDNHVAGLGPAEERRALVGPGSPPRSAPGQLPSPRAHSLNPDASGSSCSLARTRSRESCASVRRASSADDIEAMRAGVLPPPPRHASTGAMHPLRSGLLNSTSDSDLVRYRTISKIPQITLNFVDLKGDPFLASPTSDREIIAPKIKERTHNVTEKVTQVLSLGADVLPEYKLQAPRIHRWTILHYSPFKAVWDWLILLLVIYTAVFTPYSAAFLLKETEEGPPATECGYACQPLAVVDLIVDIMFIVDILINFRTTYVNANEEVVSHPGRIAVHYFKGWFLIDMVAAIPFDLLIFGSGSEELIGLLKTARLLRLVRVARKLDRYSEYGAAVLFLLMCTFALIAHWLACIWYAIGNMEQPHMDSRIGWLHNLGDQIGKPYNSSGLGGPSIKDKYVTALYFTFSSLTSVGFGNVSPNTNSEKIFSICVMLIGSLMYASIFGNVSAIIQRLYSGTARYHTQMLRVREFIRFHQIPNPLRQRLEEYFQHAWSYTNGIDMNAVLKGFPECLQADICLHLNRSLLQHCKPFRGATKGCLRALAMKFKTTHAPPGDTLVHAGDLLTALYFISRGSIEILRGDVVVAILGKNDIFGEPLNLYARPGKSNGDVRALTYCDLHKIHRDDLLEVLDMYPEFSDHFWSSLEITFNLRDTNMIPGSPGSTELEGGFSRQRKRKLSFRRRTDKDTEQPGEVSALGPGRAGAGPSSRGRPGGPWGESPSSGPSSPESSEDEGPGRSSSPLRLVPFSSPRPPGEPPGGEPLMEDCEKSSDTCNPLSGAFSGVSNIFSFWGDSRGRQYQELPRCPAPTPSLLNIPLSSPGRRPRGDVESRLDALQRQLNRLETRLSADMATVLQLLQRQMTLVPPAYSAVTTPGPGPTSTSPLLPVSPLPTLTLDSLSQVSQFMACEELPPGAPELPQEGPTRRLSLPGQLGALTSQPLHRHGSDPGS

Compound | hERG current change (%, negative = inhibition) at 10uM
O=C(NNC(=O)c1ccc(NC(=O)C2CC2)cc1)c1ccc(F)cc1 | 4.27%
C[C@H](NC(=O)C1CCN(S(=O)(=O)c2ccccc2)CC1)C(=O)NCc1ccc(Cl)c(Cl)c1 | 9.58%
CCCCn1c(N)c(N(CCOC)C(=O)COC(=O)CCOc2ccc(C)cc2)c(=O)[nH]c1=O | -21.9%
Cc1ccc(N2CC(C(=O)Nc3nccs3)CC2=O)cc1 (centres unmarked) | -5.15%
Clc1ccc2nncn2n1 | 10.8%
O=C(Nc1ccnn1C1CCN(C(=O)c2ccc(F)c(Cl)c2)CC1)C1CC1 | 3.98%
CC(C)(C)NC(=O)C(OC(=O)c1ccco1)c1ccccc1F (centres unmarked) | -1.43%
S=c1[nH]nc(-c2ccccn2)n1/N=C/c1cccs1 | 5.73%
COc1ccc(CCN=C(N)NS(=O)(=O)c2ccc3ccccc3c2)cc1 | 7.75%
CCC(C)(C)NC(=O)C1CCCN(S(=O)(=O)c2ccc3c(c2)CC(C)N3C(=O)C2CC2)C1 (centres unmarked) | -8.29%
Cc1ccc(S(=O)(=O)N2CCN(C(=O)COC(=O)Cc3ccc(Cl)cc3)CC2)c(C)c1 | -5.7%
Cc1ccc(C2(C)NC(=O)N(CC(=O)N(Cc3ccccc3)C(C)(C)C)C2=O)cc1 (centres unmarked) | -1.1%
O=C(CSc1c(F)c(F)cc(F)c1F)Nc1ccc(C2SCCS2)cc1 | 0.0732%
CCOC(=O)N1CCN(C2CC(=O)N(c3ccc(F)cc3)C2=O)CC1 (centres unmarked) | -8.16%
CC(=O)N(C(C)=O)S(=O)(=O)c1ccc(N=NN2CCCCC2)cc1 | 7.82%
COc1ccc(CC2(CCc3ccncc3)C(=O)NC(=O)NC2=O)cc1 | 22.5%
CC(C)(C)c1ccc(O)c(/C=N\O)c1 | 7.65%
CN(C(=O)Cn1cccc1C1=NC(c2ccccc2)CO1)c1ccccc1 (centres unmarked) | -26.6%
CCOC(=O)Cn1nc(-c2ccccc2)c2cnc3ccc(C)cc3c21 | 15.7%
COc1ccc(OC)c(S(=O)(=O)N(C)CC(=O)N2CCc3ccccc3C2)c1 | -35.1%
CC[n+]1c(C)sc2c(C)cc(C)cc21.[I-] | 21.6%
COc1ccc(NC2CCCN(C(=O)CCN3CCOCC3)C2)cc1 (centres unmarked) | 12.1%

Compound | hERG current change (%, negative = inhibition) at 10uM
CCOc1ccc(N2C(=O)/C(=C\c3ccccc3OC)S(=O)(=O)C2c2cccc([N+](=O)[O-])c2)cc1 (centres unmarked) | 5.99%
COc1cc(OC)c(NS(=O)(=O)c2cc(Br)cnc2N)cc1Cl | -3.84%
Oc1ccc(Br)cc1-c1cc(-c2ccc(Cl)cc2)n[nH]1 | 7.99%
Cc1ccc(S(=O)(=O)C2(C(=O)O)CCCC2)cc1C | 18.9%
COc1cc(SC)ccc1C(=O)OCC(=O)N1CCN(C(C)=O)CC1 | -16.4%
COC(=O)[C@H](Cc1ccccc1)NC(=O)c1cc(COc2c(F)cccc2F)on1 | 1.38%
CCOC(=O)c1ccc(N2CCN(c3cc(C)ccc3C)CC2)c(N)c1 | 16.6%
COc1cccc(C(=O)NN2C(=S)N(c3ccccc3)C(=O)C2CC(N)=O)c1 (centres unmarked) | 16.2%
CC(C)C(NS(=O)(=O)c1ccc2c(c1)OCCCO2)C(=O)O (centres unmarked) | 14.9%
Cn1c(C(=O)N2CCN(c3ccc(F)cc3)CC2)cc2ccccc21 | -3.67%
COC(=O)Nc1nnc(CCc2ccccc2)s1 | 5.32%
C=C1[C@@H](C)[C@H]2[C@H](Cc3ccccc3)NC(=O)[C@]23OC(=O)/C=C/[C@H](O)CCC[C@@H](C)C/C=C/[C@H]3[C@@H]1O | 7.39%
COc1ccccc1CN1CC(C(=O)N2CCCCCCC2)CCC1=O (centres unmarked) | 3.22%
CSc1nnc2c(n1)OC(c1cn(C)c3ccccc13)N(C(C)=O)c1ccccc1-2 (centres unmarked) | 4.75%
C/C(=N\Nc1ccccc1)c1c(O)n(Cc2ccccc2)c(=O)[nH]c1=O | 8.42%
O=C(CN1CCCC1=O)NC1C2CC3CC(C2)CC1C3 (centres unmarked) | 23.4%
CC(Cl)C(=O)NC(=O)NC12CC3CC(CC(C3)C1)C2 (centres unmarked) | 4.02%
CCOc1ccc(-c2cc(C(=O)N3CCC(C)CC3)c3ccccc3n2)cc1 | -13.5%
O=C(Nc1ccc(NC(=O)c2ccc3c(c2)OCCO3)cc1)c1ccccc1 | -0.166%
Cc1cc(C)cc(N(CC(=O)NC2CCC(C)CC2)S(=O)(=O)c2c(C)noc2C)c1 (centres unmarked) | 2.34%
Cc1cc(Cl)c2oc(C(=O)N(C)CC3CCOCC3)c(C)c2c1 | -11.9%
Cc1ccc(COc2ccc(/C=N/NC(=O)CN3CCCCC3)cc2)cc1 | 4.43%

Compound | hERG current change (%, negative = inhibition) at 10uM
CCCCOC(=O)CCc1c(C)[nH]c(=S)[nH]c1=O | 4.2%
CC(C)(C)OC(=O)NCCc1nnc(SCc2ccccc2)o1 | -1.14%
Cc1cc(C(F)(F)F)n2nc(-c3cnn(C)c3C(F)(F)F)cc2n1 | 9.86%
Cc1ccc(-n2ccnc(SCC(=O)NC3CCCC3)c2=O)cc1F | -2.25%
CC(C(=O)N1CCN(Cc2ccc3c(c2)OCO3)CC1)n1cc([N+](=O)[O-])cn1 (centres unmarked) | -22.3%
C[C@](N)(CCP(=O)(O)O)C(=O)O.Cl | -1.11%
Cc1ccc2nc(-c3cccnc3)cc(C(=O)Nc3ccccc3[N+](=O)[O-])c2c1 | -0.168%
O=C(Cc1ccc(S(=O)(=O)N2CCOCC2)s1)Nc1cc(Cl)ccc1Cl | -12.6%
CC1=C(C(=O)NCCCOC(C)C)C2(CCC(C)CC2)OC1=O (centres unmarked) | 17.1%
COC(=O)c1ccc(S(=O)(=O)c2ccccc2)c(N)c1 | 9.98%
CCCc1nc(Cl)c(C#N)c2c1CCCC2 | 14.2%
CCOC(=O)c1[nH]c2ccc(Br)cc2c1NC(=O)CCN1CCC(C(=O)OCC)CC1 | -73.9%
COCCNC(=O)C(=O)NCC1OCCN1S(=O)(=O)c1ccc2c(c1)OCCO2 (centres unmarked) | 11.8%
COc1cc(C)ccc1OCCOCCOc1cccc2ccc(C)nc12.O=C(O)C(=O)O | -29.3%
COc1ccc(CNC(=O)C2CCCN(S(=O)(=O)c3ccc(-n4cnnn4)cc3)C2)cc1 (centres unmarked) | -8.97%
CC1Cc2ccccc2N1C(=O)C1CCCN(S(=O)(=O)c2cccc3cccnc23)C1 (centres unmarked) | -16.3%
CCN(CC)C(=O)Oc1nnc(SC(C)C)n1-c1ccc(Cl)cc1 | -4.75%
CCC1CCCCN1CCCNC(=O)CC1Oc2ccc(C)cc2NC1=O (centres unmarked) | -7.95%
C/C(=N\NC(=O)c1ccc([N+](=O)[O-])cc1)c1cc2ccccc2oc1=O | -17.4%
COc1ccc(/C(O)=C2\C(=O)C(=O)N(Cc3ccco3)C2c2ccc(OC)cc2OC)cc1 (centres unmarked) | -6.69%
NC1=NC(=Nc2ccc(S(N)(=O)=O)cc2)c2ccccc21 | -0.155%
Cn1c(-c2ccc(F)cc2)cnc1SCC(=O)Nc1ccccc1 | 13.9%

Compound | hERG current change (%, negative = inhibition) at 10uM
CCCC1CCC(=NNC(=S)NCCc2ccccc2)CC1 (centres unmarked) | -1.08%
CC(=O)Nc1ccc(N=Cc2ccc(OCc3ccccc3)cc2)cc1 | 15.2%
O=C1CC(SCCO)C(=O)N1c1ccccc1 (centres unmarked) | -3.04%
O=C(CSc1cccc2cccnc12)N/N=C/c1cccnc1 | 8.97%
COC(=O)C(Cc1ccc(O)cc1)NC(=O)CCc1nc2ccccc2s1 (centres unmarked) | 8.71%
COc1ccc(-n2ncc3c2CC(C)(C)CC3NC(=O)Cc2nonc2C)cc1 (centres unmarked) | 3.4%
COc1cc(-c2[nH]ncc2CN2CCN(c3cccc(C)n3)CC2)cc(OC)c1OC | -47.3%
CN1CCN(C(=O)Cc2nc3ccccc3[nH]2)CC1 | -8.71%
CC(OC(=O)c1ccc(Cl)c(S(=O)(=O)Nc2ccc(F)cc2)c1)C(=O)NC(N)=O (centres unmarked) | -0.582%
CC1(C(=O)N(CC(=O)NC2CCCC2)Cc2ccc(Cl)cc2)CC(=O)N=C2C=CC=CN21 (centres unmarked) | -4.56%
CC1=CC(C)(C)N2C(=O)C3(C(C#N)=C(N)Oc4cc(C)oc(=O)c43)c3cc(C)cc1c32 (centres unmarked) | -9.84%
COC(=O)C1=C(C)NC(=O)C1(NS(=O)(=O)c1ccc(C)cc1)C(F)(F)F (centres unmarked) | 11.2%
CCOc1ccc(N(CC(=O)NCc2ccccc2Cl)S(=O)(=O)c2c(C)noc2C)cc1 | 21.4%
CN(CCCNC(=O)Cn1cc2c(n1)CCCC2)C1CCCCC1 | -13.4%
O=C(CSc1ccccc1)Nc1nnc(/C=C/c2ccccc2)s1 | -7.44%
Cc1[nH]c2ccccc2c1C(=O)COC(=O)C1CC(=O)N(Cc2ccco2)C1 (centres unmarked) | -20.6%
Cn1c(SCc2ccc(F)cc2)nnc1-c1cnccn1 | -0.9%
COc1cc2c(cc1OC)C(c1cc3cc4c(cc3[nH]c1=O)OCO4)N(C(=O)C1CC1)CC2 (centres unmarked) | -10.9%
COC(=O)c1cccc(C23CC4(C2)[C@H](CN(Cc2ccc(C(F)(F)F)cc2)[C@@H]4c2ccccc2)C3c2ccc(Cl)nc2)c1 (some centres unmarked) | 4.8%
Cc1[nH]c(=S)sc1Cc1ccc(Cl)c(Cl)c1 | 18.5%
